Measured values published in PubChem BioAssay AID1768 (National Center for Advancing Translational Sciences (NCATS), 2009).
The campaign covered roughly 270,000 compounds. About 620 (0.23%) were called active. The inconclusive results got no clear call from the source; some entries with a clear call stand among them for comparison. The call rests on the fitted dose curve; in most records, active means well fitted inhibition curve with a large enough effect in the polarisation, with a control signal flat (not every such curve was filed as active); inconclusive means small, poorly fitted or top-dose-only effect, or effect the other way, or a change in a side signal; inactive means no such curve, though single readings can be large or run the other way; the % refers to the polarisation. A potency beside an inconclusive call is a rough fit, not a confirmed value. “Side channel” marks fits to a control or component signal instead of the main read-out.

molecular target: Menin (Homo sapiens) (UniProt O00255); assay: qHTS Assay for Inhibitors Targeting the Menin-MLL Interaction in MLL Related Leukemias: Competition With Texas Red Labeled MLL-derived Mutant Peptide; settings: fluorescence polarization; series mostly up to 61.6 µM
Potency means the concentration at half of the fitted maximal effect; tags describe the fitted curve by direction and shape or compound fluorescence and quenching.

UniProt O00255, sequence (O00255 whole entry, looked up): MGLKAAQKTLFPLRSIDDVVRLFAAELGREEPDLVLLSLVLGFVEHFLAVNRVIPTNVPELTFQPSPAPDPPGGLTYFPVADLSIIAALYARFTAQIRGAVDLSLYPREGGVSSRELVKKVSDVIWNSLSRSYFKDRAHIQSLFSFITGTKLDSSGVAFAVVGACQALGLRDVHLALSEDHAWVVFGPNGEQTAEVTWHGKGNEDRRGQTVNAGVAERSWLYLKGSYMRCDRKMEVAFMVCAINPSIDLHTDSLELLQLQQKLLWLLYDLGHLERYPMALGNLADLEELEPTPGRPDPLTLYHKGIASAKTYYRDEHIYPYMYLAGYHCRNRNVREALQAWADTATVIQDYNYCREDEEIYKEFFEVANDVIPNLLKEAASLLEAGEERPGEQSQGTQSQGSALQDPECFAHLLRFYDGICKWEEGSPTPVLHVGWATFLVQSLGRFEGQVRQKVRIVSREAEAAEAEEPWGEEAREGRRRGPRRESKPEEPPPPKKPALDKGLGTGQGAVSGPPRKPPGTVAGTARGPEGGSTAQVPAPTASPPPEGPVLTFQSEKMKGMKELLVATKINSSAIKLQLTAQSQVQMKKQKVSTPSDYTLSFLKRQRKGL

SMILES | Potency
N#Cc1ccc(C(=O)Nc2ccc3ccccc3c2)cc1 | inconclusive: 39.8 µM [inhibitor, single point]
CC(C)(C)c1ccc(C(=O)N2CCC(NC(=O)c3ccccc3)CC2)cc1 | inconclusive: 14.1 µM [inhibitor, partial curve]
O=C1c2ccccc2C(=O)N1CCCCCc1nc(-c2ccccc2)no1 | inconclusive: 1.78 µM [inhibitor, full curve, poor fit]
COc1ccc2c(c1)-c1nc(NC(=O)c3cccs3)sc1CC2 | inconclusive: 8.91 µM [quencher, side channel, partial curve]
CC(C)(C)c1ccc(/C=C/C(=O)N2CCc3ccccc3C2)cc1 | inconclusive: 7.94 µM [quencher, side channel, partial curve]
O=C(CSc1n[nH]c(-c2ccc(S(=O)(=O)N3CCCCC3)cc2)n1)Nc1nccs1 | inconclusive: 25.1 µM [quencher, side channel, partial curve]
CCN(CC)CCNC(=O)c1cc2cc3ccc(OC)cc3nc2o1 | inconclusive: 8.91 µM [inhibitor, full curve, poor fit]
O=C(NC1CCCC1)C(c1cccnc1)N(C(=O)c1ccco1)c1ccc(F)cc1 (stereo not given) | inconclusive: 20 µM [inhibitor, partial curve]
CN(C)C(=O)c1ccccc1Sc1ccc(Cl)cc1Cl | inconclusive: 31.6 µM [fluorescent, side channel, single point]
O=C(Nc1ccccc1)Nc1nnc(CSCc2ccccc2Cl)s1 | inconclusive: 25.1 µM [quencher, side channel, partial curve]
O=C(Nc1cccc(Cl)c1)Nc1nnc(CSCCOc2ccc(Cl)cc2)s1 | inconclusive: 2.82 µM [quencher, side channel, single point]
COc1cccc(/C=C2\SC(=S)N(N3C(=O)CCCC3=O)C2=O)c1 | inconclusive: 39.8 µM [quencher, side channel, single point]
NC(=S)N/N=C/c1ccc(-c2cc(Cl)cc(Cl)c2)o1 | inconclusive: 25.1 µM [quencher, side channel, partial curve]
CSc1ccc(S(=O)(=O)N2CCC(C(=O)NCCc3ccccc3)CC2)cc1 | inconclusive: 39.8 µM [inhibitor, single point]
COc1cccc(-c2nn(-c3ccccc3)cc2CN(C)C(C)c2ccon2)c1 (stereo not given) | inconclusive: 31.6 µM [quencher, side channel, partial curve]
Cc1ccc(C)c(NC(=O)C2C3CCCC2C3c2ccccc2)c1 (stereo not given) | inconclusive: 15.8 µM [fluorescent, side channel, partial curve]
Cc1ccc(C(=O)Nc2nccs2)cc1S(=O)(=O)N1CCCCC1 | inconclusive: 11.2 µM [quencher, side channel, partial curve]
COc1ccc(/C=N/Nc2snc(SC)c2C#N)cc1OC | inconclusive: 12.6 µM [quencher, side channel, partial curve]
Cc1csc(N/N=C/c2ccc([N+](=O)[O-])cc2)n1 | inconclusive: 35.5 µM [quencher, side channel, partial curve]
N#Cc1ccc(C(=O)Nc2cccc(NC(=O)c3ccco3)c2)c(F)c1 | inconclusive: 39.8 µM [inhibitor, single point]
CCCCCCOc1ccc(N2C(=O)CC(S/C(N)=N/N=C(\C)c3cccs3)C2=O)cc1 (stereo not given) | inconclusive: 3.16 µM [quencher, side channel, single point]
O=C(c1cnn(-c2ccccc2)c1)c1ccc2ccccc2c1O | inconclusive: 20 µM [quencher, side channel, partial curve]
Cc1ccc(-c2csc(Cc3nc(-c4ccc5c(c4)CCC(=O)N5)cs3)n2)cc1 | inconclusive: 11.2 µM [quencher, side channel, partial curve]
CCc1cc(SC#N)cc(C)c1N | inactive
Cc1ccc2c(CC(=O)Nc3cccc(S(=O)(=O)N4CCOCC4)c3)coc2c1 | inconclusive: 25.1 µM [quencher, side channel, single point]
Cc1nc2ncnn2c(N2CCN(C(c3ccccc3)c3ccccc3)CC2)c1C | inconclusive: 15.8 µM [fluorescent, side channel, partial curve]
O=C(c1cc(F)ccc1F)C1CCCN(C(=O)c2ccc(F)cc2Cl)C1 (stereo not given) | inconclusive: 28.2 µM [fluorescent, side channel, partial curve]
CC(=O)c1sc(N/N=C/c2cccc(O)c2)nc1C | inconclusive: 25.1 µM [quencher, side channel, partial curve]

SMILES | Potency
C=CCn1c(SCC(=O)NC)nnc1C12CC3CC(CC(C3)C1)C2 | inactive
Cc1cc(Br)c(NC(=O)c2ccccc2[N+](=O)[O-])cc1C | inactive
CN(C)c1ccc(NC(=O)/C=C/c2ccccc2Cl)cc1 | inconclusive: 35.5 µM [quencher, side channel, partial curve]
COc1ccc(Cn2c(C)c(C)c(C#N)c2NC(=O)Nc2ccc(Cl)cc2)cc1 | inconclusive: 39.8 µM [inhibitor, single point]
O=C(Nc1ccccc1-c1ccccc1)c1cccc([N+](=O)[O-])c1 | inconclusive: 12.6 µM [quencher, side channel, partial curve]
COCCn1c(-c2ccc(-c3ccccc3Cl)o2)nc2c1c(=O)[nH]c(=O)n2CC(C)C | inconclusive: 7.08 µM [inhibitor, single point]
FC(F)(F)c1cccc(NC(=S)N(CCCN2CCCC2)Cc2cccn2Cc2ccc(Cl)cc2)c1 | inconclusive: 11.2 µM [fluorescent, side channel, partial curve]
CC[C@H](C)[C@H](NC(=O)[C@H](CC(=O)O)NC(=O)[C@H](CC(C)C)NC(=O)[C@H](NC(C)=O)C(c1ccccc1)c1ccccc1)C(=O)N[C@H](C(=O)N[C@@H](Cc1c[nH]c2ccccc12)C(=O)O)[C@@H](C)CC | inactive
O=C(Nc1ccc[n+](CC(=O)c2cccc3ccccc23)c1)c1ccccc1 | inconclusive: 12.6 µM [inhibitor, partial curve]
O=C1Nc2ccccc2Nc2ccc([N+](=O)[O-])cc21 | inconclusive: 35.5 µM [quencher, single point]
Cc1cccc(COC[C@H](Cc2ccccc2)N2CCN(C(=O)c3cccc(Cl)c3)CCC2=O)c1 | inconclusive: 3.55 µM [fluorescent, side channel, full curve, poor fit]
C/C(=N/NS(=O)(=O)c1ccc(C)cc1)c1cccc(NC(=O)c2cccc(Cl)c2)c1 | inconclusive: 39.8 µM [inhibitor, single point]
COc1ccc(CN2CCC(C(=O)N(C)CCc3ccc(OC)c(OC)c3)CC2)c(OC)c1 | inconclusive: 3.98 µM [inhibitor, partial curve]
C/[N+]([O-])=C\c1cccc(OCCN2CCN(c3ncc(C(F)(F)F)cc3Cl)CC2)c1 | inconclusive: 44.7 µM [fluorescent, side channel, single point]
COc1ccc(-c2csc(-n3ncc(-c4cccs4)c3N)n2)cc1 | inconclusive: 3.98 µM [quencher, side channel, full curve]
COc1ccc(N2CCN(c3ccc(NC(=O)C4CCCCC4)cc3C#N)CC2)cc1 | inconclusive: 31.6 µM [quencher, side channel, partial curve]
CC(=O)[C@]1(O)Cc2c(O)c3c(c(O)c2[C@@H](O[C@H]2C[C@H](N)[C@H](O)[C@H](C)O2)C1)C(=O)c1c(O)cccc1C3=O | inconclusive: 15.8 µM [fluorescent, side channel, partial curve]
Cc1cc(C)c([N+](=O)[O-])cc1-c1ccc(/C=N/c2c(-c3ccco3)nc3ccccn23)o1 | inconclusive: 14.1 µM [quencher, side channel, partial curve]
COC(=O)c1cc2n3ccccc3c(C)c(-c3ccccc3)c-2c1C(=O)OC | inactive
CNc1ccccc1C(C)(C)c1cc(-c2cccc(OC)c2)no1 | inconclusive: 28.2 µM [fluorescent, side channel, partial curve]
COc1ccc(Oc2cn[nH]c2-c2ccc(OC)cc2O)cc1 | inconclusive: 14.1 µM [quencher, side channel, partial curve]
CCOc1ccc2nc(NCCNC(=O)C(C)C)c(C)cc2c1 | inactive
C=CCn1c(CSCc2ccc(Cl)cc2)nnc1SCC(=O)NCc1ccccc1 | inconclusive: 10 µM [fluorescent, side channel, partial curve]
O=C(COC(=O)CC1CCCC1)Nc1cc2c(cc1Cl)C(=O)c1ccccc1C2=O | inconclusive: 17.8 µM [quencher, side channel, partial curve]
C/C(=N\Nc1nc(-c2ccccc2O)nc2ccccc12)c1ccccc1 | inconclusive: 11.2 µM [quencher, side channel, partial curve]
Cc1nnc(SC(C(=O)Nc2cc(Cl)cc(Cl)c2)c2ccccc2)[nH]c1=O (stereo not given) | inconclusive: 31.6 µM [quencher, side channel, single point]
C[C@@H](NC(=O)c1nc[nH]c1C(=O)N[C@@H](CCCCNC(=O)OC(C)(C)C)C(=O)OC(C)(C)C)c1ccccc1 | inconclusive: 0.708 µM [fluorescent, side channel, full curve]
